Data as given in PubChem BioAssay AID1461 (National Center for Advancing Translational Sciences (NCATS), 2008).
The whole screen tested about 220,000 compounds, of which about 2,300 (1%) were called active. Inconclusive means that the source gave no clear call. Such entries were picked first, then a sample of the others. The call rests on the fitted dose curve; in most records, active means well fitted inhibition curve with a large enough effect; inconclusive means small, poorly fitted or top-dose-only effect, or effect the other way; inactive means no such curve, though single readings can be large or run the other way. Potencies of inconclusive entries are left out as doubtful fits.
Further: nearly all actives have a fitted effect of over 50% in size.
On the % scale 0 is the no-effect control and ±100 the full control effect; potency means the concentration at half of the fitted maximal effect; tags describe the fitted curve by direction and shape.

What follows are compounds tested against Neuropeptide S receptor (Homo sapiens) (UniProt Q6W5P4) (assay: qHTS Assay for Antagonists of the Neuropeptide S Receptor: cAMP Signal Transduction). Conditions: CHO-NPSR cells, cAMP TR-FRET, antagonist mode; activity change, negative = inhibition: at 38.3 µM (top of the series) unless noted.
Chain of UniProt Q6W5P4 (Q6W5P4 whole entry, looked up): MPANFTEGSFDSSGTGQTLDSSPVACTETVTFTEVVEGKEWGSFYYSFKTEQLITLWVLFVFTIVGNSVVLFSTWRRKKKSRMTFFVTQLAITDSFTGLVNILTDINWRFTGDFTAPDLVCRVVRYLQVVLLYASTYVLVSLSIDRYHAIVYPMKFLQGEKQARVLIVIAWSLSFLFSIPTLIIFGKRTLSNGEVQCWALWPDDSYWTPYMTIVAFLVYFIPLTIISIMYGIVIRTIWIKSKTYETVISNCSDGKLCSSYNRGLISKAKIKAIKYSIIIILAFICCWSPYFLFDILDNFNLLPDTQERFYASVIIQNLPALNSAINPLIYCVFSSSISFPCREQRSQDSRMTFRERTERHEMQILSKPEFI
With `COC(=O)CSc1cnc2ccccc2n1` the “activity change, negative = inhibition” value was inactive: -3.78% [at 46.1 µM]. For `CCOC(=O)N1CCN(C(=O)c2ccc(NC(=O)c3ccc(C)cc3)cc2)CC1`, the Potency was inconclusive [inhibitor, partial curve, poor fit]. `O=c1c2c(nc3n1CCCCC3)-c1ccccc1CC21CCCC1` was tested, and the Potency was inconclusive [inhibitor, single point]. For `CCOC(=O)CSC1=NC(=O)/C(=C/c2ccc(OC)cc2)S1`, the “activity change, negative = inhibition” value was inactive: -55.5%. `COc1cccc(C(=O)COc2ccc3c(C)c(Cc4ccccc4)c(=O)oc3c2)c1` was tested, and the “activity change, negative = inhibition” value was inactive: 11.3%. For `CC(=O)CSc1nc(-c2cccs2)c(C#N)c(=O)[nH]1`, the Potency was inconclusive [activator, partial curve]. With `O=C(COc1cccc2ccccc12)NNC(=O)c1cccs1` the “activity change, negative = inhibition” value was inactive: -2.66% [at 46.1 µM]. For `C=CCN(C(=O)CCC(=O)Nc1cc(C)on1)C(C(=O)NC1CCCC1)c1cccnc1` (centres undefined), the “activity change, negative = inhibition” value was inactive: -9.88% [at 46.1 µM]. With `COC(=O)Cn1c(=NC(=O)c2ccc(Cl)s2)sc2cc(F)ccc21` the Potency was inconclusive [inhibitor, single point]. With `CCCOc1ccc(C2C(C(=O)c3ccc(C)o3)=C(O)C(=O)N2Cc2cccnc2)cc1` (centres undefined) the Potency was inconclusive [activator, single point]. In the case of `COc1ccc(Cn2c(=O)[nH]c3cc(C(=O)NCCCN4CCCCCC4)ccc3c2=O)cc1`, the Potency is reported as inconclusive [inhibitor, single point]. In the case of `CCOc1ccc(C(=O)CN2CCN(S(=O)(=O)c3ccc(Br)cc3)CC2)cc1`, the “activity change, negative = inhibition” value is reported as inactive: -19.9% [at 46.1 µM]. With `Cc1nc(NC(=O)CC(C)C)sc1-c1csc(Nc2ccc(Cl)cc2Cl)n1` the Potency was inconclusive [inhibitor, partial curve, poor fit]. For `O=C(Nc1ccc(OC(F)(F)F)cc1)c1[nH]ncc1[N+](=O)[O-]`, the “activity change, negative = inhibition” value was inactive: -0.835%. For `COc1ccc(OC)c(C2C(C(=O)Nc3nc4ccccc4s3)=C(C)NC3=C2C(=O)CCC3)c1` (centres undefined), the Potency was inconclusive [inhibitor, full curve]. In the case of `Cc1nc2cc(NC(=O)CSc3nc4c(C)cccc4cc3C#N)ccc2s1`, the Potency is reported as inconclusive [inhibitor, single point]. `Cc1nn(-c2ccccc2)c2sc(C(=O)N(Cc3ccco3)C(C)C(=O)NC(C)(C)C)cc12` (centres undefined) was tested, and the Potency was inconclusive [inhibitor, partial curve]. `COc1ccc(N2C(=O)CCC(C(=O)Nc3cccc(C)n3)C2c2ccc(OC)c(OC)c2)cc1` (centres undefined) was tested, and the Potency was inconclusive [activator, full curve, poor fit]. With `CCNC(=S)N/N=C/c1cccc(OCc2c(F)cccc2Cl)c1` the Potency was inconclusive [inhibitor, single point]. For `CCC(=C(c1ccc(OC)cc1)c1ccc(OC)cc1)c1cn(CC(O)CN2CCN(C)CC2)c2ccccc12` (centres undefined), the Potency was inconclusive [inhibitor, single point]. In the case of `COc1ccc(CCNC(=O)CCNS(=O)(=O)c2ccc3c(c2)CCN3C(C)=O)cc1OC`, the Potency is reported as inconclusive [inhibitor, single point]. With `CC(C)(C)C(=O)NNC(=O)COc1ccc2ccccc2c1Br` the “activity change, negative = inhibition” value was inactive: -34%. With `CN1CCN(C(=S)c2ccc(-c3cc(Cl)ccc3Cl)o2)CC1` the Potency was inconclusive [inhibitor, single point]. `N#CCSc1nc2ccc(N3CCOCC3)cc2c(=O)n1CCc1ccccc1` was tested, and the Potency was inconclusive [inhibitor, partial curve, poor fit]. With `COc1nnc(-c2ccc(N3CCOCC3)c(NC(=O)C3CCCCC3)c2)c2ccccc12` the Potency was inconclusive [inhibitor, single point]. With `C=CCn1c(=O)/c(=C/c2ccc(F)cc2)s/c1=C(\C#N)c1nnc2n1CCCCC2` the Potency was inconclusive [inhibitor, partial curve]. `O=C(N/N=C/c1ccccc1[N+](=O)[O-])c1ccc2c(c1)OCCO2` was tested, and the “activity change, negative = inhibition” value was inactive: -10.9%. With `Cn1c(SCC(=O)N(C2CCCCC2)C2CCCCC2)nnc1-c1cccs1` the Potency was inconclusive [inhibitor, partial curve]. `CCOC(=O)CSc1nc2ccccc2c(=O)n1CC1CCCC1` was tested, and the Potency was inconclusive [inhibitor, single point]. `COc1ccccc1CNCCCCCCNCCCCCCCCNCCCCCCNCc1ccccc1OC` was tested, and the Potency was active: 12.6 µM. In the case of `C(=N\Nc1nc2ccccc2[nH]1)/c1cccc2cccnc12`, the Potency is reported as inconclusive [activator, partial curve]. `COc1ccc(CC(=O)Nc2nc(-c3cccnc3)cs2)cc1` was tested, and the “activity change, negative = inhibition” value was inactive: -0.179%. In the case of `CCC(=O)N=c1sc2c(C)cc(C)cc2n1CC(=O)OC`, the Potency is reported as inconclusive [inhibitor, single point]. In the case of `O=C(Nc1ccc([N+](=O)[O-])cc1)Nc1ccc2[nH]c(=O)[nH]c2c1`, the “activity change, negative = inhibition” value is reported as inactive: 2.21%. `Oc1ccc(Cl)cc1C1=NNC(c2cccs2)C1` (centres undefined) was tested, and the activity change, negative = inhibition was inactive: -1.34% [at 7.67 µM]. For `COc1ccc(/C=N/Nc2ccc(C(=O)O)cc2)cc1OC`, the “activity change, negative = inhibition” value was inactive: -19.7%. For `Cc1ccn2c(Nc3ccccc3)c(-c3ccccn3)nc2c1`, the Potency was inconclusive [inhibitor, single point]. For `CCC(=O)N1CCN(c2ccc(Cl)cc2NC(=O)c2ccc3c(c2)OCCO3)CC1`, the Potency was inconclusive [inhibitor, partial curve]. `Nc1ccc(Sc2nnnn2-c2ccccc2)c(Cl)c1` was tested, and the Potency was inconclusive [inhibitor, partial curve]. For `CCn1cc(-c2csc(N)n2)c(C)n1`, the “activity change, negative = inhibition” value was inactive: 14.7%. In the case of `COc1ccc(S(=O)(=O)Nc2cc(Sc3ncn[nH]3)c(O)c3ccccc23)cc1`, the Potency is reported as inconclusive [inhibitor, single point]. In the case of `CSc1c(CC(=O)Nc2ccccc2Cl)n(Cc2ccccc2)c2ccccc12`, the Potency is reported as inconclusive [inhibitor, single point]. `Cc1ccc(NC(=O)c2cc(N3C(=O)C=CC3=O)ccc2N2CCOCC2)cc1` was tested, and the Potency was inconclusive [activator, single point]. For `O=S(=O)(NCCC1=CCCCC1)c1cccc(S(=O)(=O)N2CCOCC2)c1`, the “activity change, negative = inhibition” value was inactive: -5.6% [at 46.1 µM].
